Results published in PubChem BioAssay AID493208 (National Center for Advancing Translational Sciences (NCATS), 2011).
Screen size: about 44,000 compounds; about 340 (0.77%) were called active. Not shown: some 5% with an inconclusive outcome. Calls follow the shape of the dose curve; as a rule, active = well fitted inhibition curve with a large enough effect; inconclusive = small, poorly fitted or top-dose-only effect; inactive = flat fitted curve, though single readings scatter. This is one part of the list.

Test: Acumen qHTS Assay for Inhibitors of the mTORC1 Signaling Pathway in MEF (Tsc2-/-, p53-/-) Cells: Sytravon;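 also: plate controls were DMSO for no effect and rapamycin for full effect; nearly all actives have a fitted effect of over 50% in size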
Settings: phospho-rpS6 immunofluorescence/PI, 24 h; series mostly up to 38.3 µM; activity change, negative = inhibition: at the top concentration
Procedure, shortened: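 Cell-based qHTS: Tsc2-/- p53-/- MEF, 24 h cpd, 37 °C; fix/perm, anti-phospho-S6 Alexa-488 + PI; Acumen 488 nm scan; pS6/PI ratio, % positive cells; rapamycin 7.5 nM = inhibition ref; PI count = viability.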

| Structure (SMILES) | activity change, negative = inhibition |
| --- | --- |
| CC(=O)c1ccc(N2C(=O)N(Cc3ccccc3C#N)c3ccccc3S2(=O)=O)cc1 | inactive: 0.323% |
| CCOc1ccc(C(=O)NCC(c2ccc3c(c2)OCO3)N2CCOCC2)cc1 (stereo unspecified) | inactive: -2.29% |
| COc1cc(-c2noc(-c3ccc(NCc4ccco4)c([N+](=O)[O-])c3)n2)cc(OC)c1OC | inactive: -0.294% |
| Cc1c(C(=O)Nc2ccc(F)c(Cl)c2)oc2ccc(S(=O)(=O)N(C)C3CCCCC3)cc12 | inactive: 4.65% |
| Cc1ccc(-n2ncc(C(=O)Nc3ccc4c(c3)OCO4)c2C2CCN(C(=O)OC(C)(C)C)CC2)c(C)c1 | inactive: 0.45% |
| CCOC(=O)c1nc(Nc2ccccc2OC)c2ccccc2n1 | inactive: -16.8% |
| Cc1cn2c(=O)cc(COc3ccc(NC(=O)c4ccccc4C)cc3)nc2s1 | inactive: -15.3% |
| CCCOc1ccc(-c2nc(N3CCCCC3)c3ccccc3n2)cc1 | inactive: 8.6% |
| Cc1nn(C)c2c1c(C(F)(F)F)cc(=O)n2CC(=O)N1CCCCC1C (stereo unspecified) | inactive: -1.56% |
| CCCCN(CC)C(=O)c1cc2c(=O)n3ccccc3nc2n1C | inactive: -0.958% |
| COc1cc2[nH]c(=O)n(Cc3ccc(C(=O)N4CCN(c5cc(Cl)ccc5C)CC4)cc3)c(=O)c2cc1OC | inactive: -23.1% |
| COc1ccc(N(Cc2cccs2)C(=O)c2ccc(C(C)(C)C)cc2)cc1 | inactive: -1.68% |
| O=C(NCC(c1ccc2c(c1)OCO2)N1CCOCC1)C(=O)Nc1ccc(F)cc1F (stereo unspecified) | inactive: -4.45% |
| O=C(Cn1cnc2c(oc3ccccc32)c1=O)Nc1ccc(OC(F)(F)F)cc1 | inactive: -0.757% |
| O=C(Nc1cccc(Cl)c1)N1CCC(CN2CCOCC2)CC1 | inactive: 0.192% |
| O=C(CN1C(=O)CC(c2ccco2)Sc2ccccc21)Nc1ccc(C(F)(F)F)cc1 (stereo unspecified) | inactive: 0.107% |
| CC(C)(C)c1ccc(S(=O)(=O)c2cn(CC(=O)Nc3ccccc3)c3ccccc3c2=O)cc1 | inactive: -0.512% |
| Cc1cccc(CCNC(=O)c2cnc3c(C)cccn3c2=O)c1 | inactive: 4.3% |
| Cc1ccc(CNC(=O)c2ccc3c(c2)N(Cc2ccccc2)C(=O)c2ccccc2S3(=O)=O)cc1 | inactive: -11.7% |
| COc1ccccc1CNC(=O)Cc1csc2nc(-c3ccccc3)cn12 | inactive: 0% |
| O=C(CCC1N=C2c3ccccc3N=C(SCc3ccccc3F)N2C1=O)NCCc1ccccc1 (stereo unspecified) | inactive: 3.34% |

| Structure (SMILES) | activity change, negative = inhibition |
| --- | --- |
| Cc1cc(C)c(NC(=O)Cn2ccn(-c3cccc(Cl)c3)c(=O)c2=O)c(C)c1 | inactive: -1.31% |
| COC(=O)C1CCN(CC(=O)Nc2cc(C)c3c(=O)oc4ccccc4c3n2)CC1 | inactive: -7.68% |
| COc1ccc(N(C(=O)c2cccc(C)c2)S(=O)(=O)c2ccc(C)cc2)cc1 | inactive: 3.49% |
| O=C(Nc1nnc(S(=O)(=O)N2CCCc3ccccc32)s1)c1cccc(F)c1 | inactive: 0.153% |
| Cc1ccc2c(c1)N(C(=O)C1CCN(S(=O)(=O)c3c(C)noc3/C=C/c3ccccc3F)CC1)CCO2 | inactive: -3.65% |
| CCn1c(SCc2ccc(F)cc2Cl)nnc1-c1nonc1NC(C)=O | inactive: -2.92% |
| CCOC(=O)c1ccc(NC(=O)c2c(C)nn(-c3ccc(F)cc3)c2-n2cccc2)cc1 | inactive: 0.332% |
| COc1ccc(CNC(=O)CCNS(=O)(=O)c2cccc3nsnc23)cc1 | inactive: -12.3% |
| Fc1ccc(-n2ncc3c(N4CCC(Cc5ccccc5)CC4)ncnc32)cc1 | inactive: 3.05% |
| CCOc1ccccc1CNC(=O)c1ccc(NC(=O)N2CCSc3ncccc32)cc1 | inactive: -8.53% |
| COc1ccc(OC)c(CNC(=O)Cn2nc(C)c3nn(-c4ccc(Cl)cc4)c(C)c3c2=O)c1 | inactive: 1.21% |
| COc1ccc2oc(=O)c(-c3cn4c(n3)sc3cc(OC)ccc34)cc2c1 | inactive: -0.733% |
| CCc1ccccc1NC(=O)Nc1nnc(N(C)Cc2ccccc2)s1 | inactive: 4.62% |
| Clc1ccc(N2CCN(c3ncnc4c3cnn4-c3ccccc3)CC2)cc1Cl | inactive: -0.214% |
| COc1ccc(NC(=O)c2cc(S(=O)(=O)N3CCCCCC3)cn2C)cc1Cl | inactive: 6.95% |
| COc1cccc(Cn2c(CNC(=O)Cc3cccc(C)c3)nc3cccnc32)c1 | inactive: 1.5% |
| COc1ccccc1-c1nc2c(c(SCC(=O)Nc3ccc(C)c(C)c3)n1)Cc1c(CO)cnc(C)c1O2 | inactive: -5.64% |
| Cc1ccccc1NC(=O)Cn1c(=O)oc2cc(Br)ccc21 | inactive: -10.2% |
| Cc1ccc(NC(=O)c2cccc3c2C(=O)N(C2CCCCC2)C3)c(C)c1 | inactive: -4.71% |
| COc1ccc(N(CC(=O)Nc2cccc(Cl)c2C)S(=O)(=O)c2c(C)nn(C)c2C)cc1 | inactive: 0.315% |
| COc1ccc(C2=C(C)C(=NCCCN3CCN(c4cc(C)ccc4C)CC3)NS2(=O)=O)cc1 | inactive: -3.82% |

| Structure (SMILES) | activity change, negative = inhibition |
| --- | --- |
| Cc1c(C)n(C)c2ccc(C(=O)NCCCN3CCCCC3C)cc12 (stereo unspecified) | inactive: 1.3% |
| O=C(c1cc2c(s1)-c1ccccc1OC2)N1CCN(c2ccccc2F)CC1 | inactive: -8.05% |
| Cc1ccc(C)c(NC(=O)Cn2cc(C(=O)c3ccco3)c3ccccc32)c1 | inactive: -29.9% |
| CCCCN(CC)CCCNC(=O)c1nn(C)c2c1CS(=O)(=O)c1ccccc1-2 | inactive: -0.984% |
| CCc1c(C)sc(NC(=O)c2cc(-c3cccc(Cl)c3)on2)c1C#N | inactive: -0.847% |
| CCOC(=O)C1CCCN(c2cc(C)nc3c(-c4ccccc4OC)c(C)nn23)C1 (stereo unspecified) | inactive: -8.68% |
| CCCCCOc1c(Cl)cc(C(=O)N(Cc2ccc(C)o2)C2CCS(=O)(=O)C2)cc1Cl (stereo unspecified) | inactive: 1.44% |
| CCCN(CCC)CCCNC(=O)C1CCN(S(=O)(=O)CC)CC1 | inactive: 2.84% |
| COc1ccc(C)c2sc(N(Cc3cccnc3)C(=O)C3CCCCC3)nc12 | inactive: -2.6% |
| CCOC(=O)c1ccc(N2C(=O)c3n[nH]c(-c4ccco4)c3C2c2ccc(O)cc2)cc1 (stereo unspecified) | inactive: -1.72% |
| COc1ccc(C)cc1NC(=O)c1c(C)oc2ncn(CC(C)C)c(=O)c12 | inactive: 5.21% |
| CCCn1cc(S(=O)(=O)c2ccccc2)c(=O)c2cc(F)c(N3CCCC(C)C3)cc21 (stereo unspecified) | inactive: 1.1% |
| Cc1ccc(S(=O)(=O)CC(=O)Nc2sc3c(c2C#N)CCCC3)cc1 | inactive: -16.4% |
| CCn1cc(CCC(=O)NCc2ccccc2OC)c2ccccc21 | inactive: -10.4% |
| Cc1ccc(CSCC(=O)N2CCN(c3ccccc3F)CC2)cc1 | inactive: 11.2% |
| CCOC(=O)Cn1c(=O)n(C2CCCCC2)c2nc(-c3cccc(F)c3)nc(C(N)=O)c21 | inactive: 0.184% |
| CC1=C(C(=O)Nc2ccccc2)C(c2cccnc2)n2nc(SCc3ccccc3Cl)nc2N1 (stereo unspecified) | inactive: 11.2% |
| Cc1ccc(S(=O)(=O)c2cc3cc(C(=O)O)ccc3oc2=O)cc1 | inactive: -6.1% |
| CCOC(=O)c1c(NC(=O)COc2cc(C)ccc2C(C)C)sc(C)c1C | inactive: -3.99% |
